Data from the supplement of paper PMC8728848.
The other results are listed elsewhere or left out.

Key:
Assay in all cases: glycan array binding signal (z-score within array); higher = stronger binding
Conditions in all cases: glycan notation: IUPAC condensed, linker removed
[1] = target: Fuc(a1-3)[Gal3S(b1-4)]GlcNAc6S
Method in brief: (§1)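 Arrays were curated from the Consortium for Functional Glycomics database, 3228 in total, and kept only where the protein sequence was available. Binding is expressed as a within-array Z-score. This score was averaged across arrays of the same protein sequence at different concentrations or buffers and across linkers, and negative values can be read as non-binding.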

[2] = target: Fuc(a1-3)[GalNAc(b1-4)]GlcNAc
Method in brief: as §1

[3] = target: Fuc(a1-3)[GalNAc(b1-4)]GlcNAc6S
Method in brief: as §1

Fuc(a1-4)GlcNAc = target: Fuc(a1-4)GlcNAc
Method in brief: as §1

Fuc(b1-3)GlcNAc = target: Fuc(b1-3)GlcNAc
Method in brief: as §1

Gal(a1-2)Gal = target: Gal(a1-2)Gal
Method in brief: as §1

Gal(a1-3)Gal = target: Gal(a1-3)Gal
Method in brief: as §1

Gal(a1-3)Gal(b1-3)GlcNAc = target: Gal(a1-3)Gal(b1-3)GlcNAc
Method in brief: as §1

[4] = target: Gal(a1-3)Gal(b1-3)GlcNAc(b1-2)Man
Method in brief: as §1

[5] = target: Gal(a1-3)Gal(b1-3)GlcNAc(b1-2)Man(a1-3)[Gal(a1-3)Gal(b1-3)GlcNAc(b1-2)Man(a1-6)]Man(b1-4)GlcNAc(b1-4)GlcNAc
Method in brief: as §1

[6] = target: Gal(a1-3)Gal(b1-3)GlcNAc(b1-3)GalNAc
Method in brief: as §1

[7] = target: Gal(a1-3)Gal(b1-3)GlcNAc(b1-6)GalNAc
Method in brief: as §1

[8] = target: Gal(a1-3)Gal(b1-3)[Fuc(a1-4)]GlcNAc(b1-2)Man(a1-3)[Gal(a1-3)Gal(b1-3)[Fuc(a1-4)]GlcNAc(b1-2)Man(a1-6)]Man(b1-4)GlcNAc(b1-4)GlcNAc
Method in brief: as §1

Gal(a1-3)Gal(b1-4)Glc = target: Gal(a1-3)Gal(b1-4)Glc
Method in brief: as §1

Gal(a1-3)Gal(b1-4)GlcNAc = target: Gal(a1-3)Gal(b1-4)GlcNAc
Method in brief: as §1

[9] = target: Gal(a1-3)Gal(b1-4)GlcNAc(b1-2)Man
Method in brief: as §1

[10] = target: Gal(a1-3)Gal(b1-4)GlcNAc(b1-2)Man(a1-3)[Gal(a1-3)Gal(b1-4)GlcNAc(b1-2)Man(a1-6)]Man(b1-4)GlcNAc(b1-4)GlcNAc
Method in brief: as §1

[11] = target: Gal(a1-3)Gal(b1-4)GlcNAc(b1-3)GalNAc
Method in brief: as §1

[12] = target: Gal(a1-3)Gal(b1-4)GlcNAc(b1-6)GalNAc
Method in brief: as §1

[13] = target: Gal(a1-3)Gal(b1-4)[Fuc(a1-3)]GlcNAc
Method in brief: as §1

[14] = target: Gal(a1-3)Gal(b1-4)[Fuc(a1-3)]GlcNAc(b1-2)Man(a1-3)[Gal(a1-3)Gal(b1-4)[Fuc(a1-3)]GlcNAc(b1-2)Man(a1-6)]Man(b1-4)GlcNAc(b1-4)GlcNAc
Method in brief: as §1

Gal(a1-3)GalNAc = target: Gal(a1-3)GalNAc
Method in brief: as §1

[15] = target: Gal(a1-3)[Gal(a1-4)]Gal(b1-4)GlcNAc
Method in brief: as §1

[16] = target: Gal(a1-4)Gal(b1-3)GlcNAc(b1-2)Man(a1-3)[Gal(a1-4)Gal(b1-3)GlcNAc(b1-2)Man(a1-6)]Man(b1-4)GlcNAc(b1-4)GlcNAc
Method in brief: as §1

Gal(a1-4)Gal(b1-4)Glc = target: Gal(a1-4)Gal(b1-4)Glc
Method in brief: as §1

Gal(a1-4)Gal(b1-4)GlcNAc = target: Gal(a1-4)Gal(b1-4)GlcNAc
Method in brief: as §1

[17] = target: Gal(a1-4)Gal(b1-4)GlcNAc(b1-2)Man(a1-3)[Gal(a1-4)Gal(b1-4)GlcNAc(b1-2)Man(a1-6)]Man(b1-4)GlcNAc(b1-4)GlcNAc
Method in brief: as §1

[18] = target: Gal(a1-4)Gal(b1-4)GlcNAc(b1-3)Gal(b1-4)Glc
Method in brief: as §1

Gal(a1-4)GlcNAc = target: Gal(a1-4)GlcNAc
Method in brief: as §1

Gal(a1-6)Glc = target: Gal(a1-6)Glc
Method in brief: as §1

Gal(b1-2)Gal = target: Gal(b1-2)Gal
Method in brief: as §1

Gal(b1-3)Gal = target: Gal(b1-3)Gal
Method in brief: as §1

Gal(b1-3)Gal(b1-4)GlcNAc = target: Gal(b1-3)Gal(b1-4)GlcNAc
Method in brief: as §1

Gal(b1-3)GalNAc = target: Gal(b1-3)GalNAc
Method in brief: as §1

[19] = target: Gal(b1-3)GalNAc(a1-3)[Fuc(a1-2)]Gal(b1-4)Glc
Method in brief: as §1

[20] = target: Gal(b1-3)GalNAc(a1-3)[Fuc(a1-2)]Gal(b1-4)GlcNAc
Method in brief: as §1

Gal(b1-3)GalNAc(b1-3)Gal = target: Gal(b1-3)GalNAc(b1-3)Gal
Method in brief: as §1

B1: mCC1-Hexahis-Precomplexed (Mus musculus), P31809 (protein)
chain: MELASAHLHKGQVPWGGLLLTASLLASWSPATTAEVTIEAVPPQVAEDNNVLLLVHNLPLALGAFAWYKGNTTAIDKEIARFVPNSNMNFTGQAYSGREIIYSNGSLLFQMITMKDMGVYTLDMTDENYRRTQATVRFHVHPILLKPNITSNNSNPVEGDDSVSLTCDSYTDPDNINYLWSRNGESLSEGDRLKLSEGNRTLTLLNVTRNDTGPYVCETRNPVSVNRSDPFSLNIIYGPDTPIISPSDIYLHPGSNLNLSCHAASNPPAQYFWLINEKPHASSQELFIPNITTNNSGTYTCFVNNSVTGLSRTTVKNITVLEPVTQPFLQVTNTTVKELDSVTLTCLSNDIGANIQWLFNSQSLQLTERMTLSQNNSILRIDPIKREDAGEYQCEISNPVSVRRSNSIKLDIIFDPTQGGLSDGHHHHHH
Q: Which “glycan array binding signal (z-score)” value [1] does the source give for B1 here?
A: Its value is -0.213.

Q: What about the “glycan array binding signal (z-score)” value [2] of the same binder?
A: Its value is -0.088.

Q: What about the “glycan array binding signal (z-score)” value [3] of the same binder?
A: The value was -0.231.

Q: What about the “glycan array binding signal (z-score)” value (Fuc(a1-4)GlcNAc) of the same binder?
A: The value was -0.27.

Q: What about the “glycan array binding signal (z-score)” value (Fuc(b1-3)GlcNAc) of the same binder?
A: Its value is -0.183.

Q: What about the “glycan array binding signal (z-score)” value (Gal(a1-2)Gal) of the same binder?
A: The value was -0.219.

Q: What about the “glycan array binding signal (z-score)” value (Gal(a1-3)Gal) of the same binder?
A: The value was -0.022.

Q: What about the “glycan array binding signal (z-score)” value (Gal(a1-3)Gal(b1-3)GlcNAc) of the same binder?
A: Its value is -0.068.

Q: What about the “glycan array binding signal (z-score)” value [4] of the same binder?
A: The value was -0.169.

Q: What about the “glycan array binding signal (z-score)” value [5] of the same binder?
A: Its value is -0.189.

Q: And the “glycan array binding signal (z-score)” value [6]?
A: The value was -0.305.

Q: And the “glycan array binding signal (z-score)” value [7]?
A: Its value is -0.269.

Q: And the “glycan array binding signal (z-score)” value [8]?
A: Its value is -0.11.

Q: What about the “glycan array binding signal (z-score)” value (Gal(a1-3)Gal(b1-4)Glc) of the same binder?
A: Its value is -0.137.

Q: What about the “glycan array binding signal (z-score)” value (Gal(a1-3)Gal(b1-4)GlcNAc) of the same binder?
A: Its value is -0.189.

Q: And the “glycan array binding signal (z-score)” value [9]?
A: Its value is -0.254.

Q: And the “glycan array binding signal (z-score)” value [10]?
A: Its value is -0.161.

Q: And the “glycan array binding signal (z-score)” value [11]?
A: Its value is -0.221.

Q: And the “glycan array binding signal (z-score)” value [12]?
A: The value was -0.245.

Q: What about the “glycan array binding signal (z-score)” value [13] of the same binder?
A: The value was -0.214.

Q: And the “glycan array binding signal (z-score)” value [14]?
A: The value was 0.03.

Q: What about the “glycan array binding signal (z-score)” value (Gal(a1-3)GalNAc) of the same binder?
A: Its value is 0.124.

Q: And the “glycan array binding signal (z-score)” value [15]?
A: The value was -0.214.

Q: And the “glycan array binding signal (z-score)” value [16]?
A: The value was -0.14.

Q: And the “glycan array binding signal (z-score)” value (Gal(a1-4)Gal(b1-4)Glc)?
A: The value was -0.253.

Q: What about the “glycan array binding signal (z-score)” value (Gal(a1-4)Gal(b1-4)GlcNAc) of the same binder?
A: The value was -0.227.

Q: What about the “glycan array binding signal (z-score)” value [17] of the same binder?
A: The value was -0.232.

Q: What about the “glycan array binding signal (z-score)” value [18] of the same binder?
A: Its value is -0.233.

Q: What about the “glycan array binding signal (z-score)” value (Gal(a1-4)GlcNAc) of the same binder?
A: Its value is -0.205.

Q: What about the “glycan array binding signal (z-score)” value (Gal(a1-6)Glc) of the same binder?
A: Its value is -0.166.

Q: And the “glycan array binding signal (z-score)” value (Gal(b1-2)Gal)?
A: Its value is -0.263.

Q: What about the “glycan array binding signal (z-score)” value (Gal(b1-3)Gal) of the same binder?
A: Its value is -0.234.

Q: And the “glycan array binding signal (z-score)” value (Gal(b1-3)Gal(b1-4)GlcNAc)?
A: The value was -0.202.

Q: And the “glycan array binding signal (z-score)” value (Gal(b1-3)GalNAc)?
A: Its value is -0.115.

Q: What about the “glycan array binding signal (z-score)” value [19] of the same binder?
A: Its value is -0.269.

Q: What about the “glycan array binding signal (z-score)” value [20] of the same binder?
A: The value was -0.191.

Q: What about the “glycan array binding signal (z-score)” value (Gal(b1-3)GalNAc(b1-3)Gal) of the same binder?
A: The value was -0.278.
